{"source": "patent US20250333528A1", "about": "(DENALI THERAPEUTICS, published 2025)", "binders": {"B1": {"name": "B07 VHH-Fc (Fc fusion)", "chain": "QVQLVESGGGLVQTGGSLRLSCTASGLTSDTGGMGWFRQAAGKERDFVSAITWSGRHTLYADSVKGRFNISRDKGKNTVFLQMNSLKPEDTAVYYCALDVVGIGIEVQTYDYWGQGTQVTVSSGGGGAS[sequence of human IgG1 Fc with changes omitted]", "notes": "Llama VHH fused to human IgG1 Fc; also called WT B07"}, "B2": {"name": "hB07v17 (Fc fusion)", "chain": "EVQLVESGGGLVQPGGSLRLSCAASGLTSDTGGMGWFRQAPGKEREWVSAITWSGRHTLYADSVKGRFTISRDKSKNTVYLQMNSLRAEDTAVYYCALDVVGIGIEVQTYDYWGQGTLVTVSSGGGGAS[sequence of human IgG1 Fc with changes omitted]", "notes": "Humanized B07 VHH (hu VH3; 37F, 44E, 45R, 73K, 78V) fused to human IgG1 Fc"}, "B3": {"name": "hB07v18 (Fc fusion)", "chain": "EVQLVESGGGLVQPGGSLRLSCAASGFTFSTGGMGWFRQAPGKEREWVSAITWSGRHTLYADSVKGRFTISRDKSKNTVYLQMNSLRAEDTAVYYCALDVVGIGIEVQTYDYWGQGTLVTVSSGGGGAS[sequence of human IgG1 Fc with changes omitted]"}, "B4": {"name": "hB07v19 (Fc fusion)", "chain": "EVQLVESGGGLVQPGGSLRLSCAASGFTFSTGGMSWFRQAPGKEREWVSAITWSGRHTLYADSVKGRFTISRDKSKNTVYLQMNSLRAEDTAVYYCALDVVGIGIEVQTYDYWGQGTLVTVSSGGGGAS[sequence of human IgG1 Fc with changes omitted]"}, "B5": {"name": "hB07v20 (Fc fusion)", "chain": "EVQLVESGGGLVQPGGSLRLSCAASGFTFSSGGMSWFRQAPGKEREWVSAITWSGRHTLYADSVKGRFTISRDKSKNTVYLQMNSLRAEDTAVYYCALDVVGIGIEVQTYDYWGQGTLVTVSSGGGGAS[sequence of human IgG1 Fc with changes omitted]"}, "B6": {"name": "hB07v21 (Fc fusion)", "chain": "EVQLVESGGGLVQPGGSLRLSCAASGFTFSTGGMSWFRQAPGKEREWVSAITFSGRHTLYADSVKGRFTISRDKSKNTVYLQMNSLRAEDTAVYYCALDVVGIGIEVQTYDYWGQGTLVTVSSGGGGAS[sequence of human IgG1 Fc with changes omitted]"}, "B7": {"name": "hB07v22 (Fc fusion)", "chain": "EVQLVESGGGLVQPGGSLRLSCAASGFTFSTGGMSWFRQAPGKEREWVSAITYSGRHTLYADSVKGRFTISRDKSKNTVYLQMNSLRAEDTAVYYCALDVVGIGIEVQTYDYWGQGTLVTVSSGGGGAS[sequence of human IgG1 Fc with changes omitted]"}, "B8": {"name": "A08 VHH-Fc (Fc fusion)", "chain": "QVQLVESGGGVVQPGGSLRLSCAASGSTLDHYAIGWFRQAPGKEREGVSCISRSDGITYYADSVKGRFTISRDNAKNTVYLQMNSLKPEDTAVYYCAAHYGPNVCRGWLWEPPISGSWGQGTQVTVSSAS[sequence of human IgG1 Fc with changes omitted]"}, "B9": {"name": "A04 VHH-Fc (Fc fusion)", "chain": "QLQLVESGGGLVQPGESLRLSCVPSGFTLDYFAIAWFRQAPGKEREGVSCISSGDGRTFYADSVKGRFTISRDNSKNTVYLQMNSLKPEDTAVYYCASHDGPNVCRGWLWVPQLSGSWGQGTQVTVSSAS[sequence of human IgG1 Fc with changes omitted]"}, "B10": {"name": "E06 VHH-Fc (Fc fusion)", "chain": "QLQLVESGGGLVQPGGSLRLSCAGSGRSLSTYVMGWFRQAPGKERELVAARNGMSTYYTDSVKDRSAISRDNAKNTVYLEMNSLEPEDTAVYYCAGDRSWSRLLRGEYEYWGQGTQVTVSSAS[sequence of human IgG1 Fc with changes omitted]"}, "B11": {"name": "B02 VHH-Fc (Fc fusion)", "chain": "QVQLVESGGGLVQAGGSLRLSCAASESAFSLNAIGWYRQAPGNQRELVAGIGTDGITTYYADFVKDRFTISRDNVKNTVYLQMNSLKPEDTAVYYCNAGSWRTVLSGTHVSRSWGPGTQVTVSSAS[sequence of human IgG1 Fc with changes omitted]"}, "B12": {"name": "D10 VHH-Fc (Fc fusion)", "chain": "QLQLVESGGGLVKTGGSLRLSCTDSGRDYNHFQRAWFRQAPGKEREFVARITWSGTITYNESVKGRFTISGDDASNTIHLQMNSLKSDDTAIYYCALKTQPPLSQDAGDYTYWGQGTQVTVSSAS[sequence of human IgG1 Fc with changes omitted]"}, "B13": {"name": "E10 VHH-Fc (Fc fusion)", "chain": "QVQLVESGGGLVQPGGSLRLSCTTSGSTLDDYAIGWFRQAPGKEREGVSCISSSDGITFYGDFVKGRFTISRDNAKNSVYLQMNNLKPEDTAVYYCAAKYGPNICRGWLWVPPVSGSWGQGTQVTVSSAS[sequence of human IgG1 Fc with changes omitted]"}, "B14": {"name": "hB07v9 (Fc fusion)", "chain": "EVQLVESGGGLVQPGGSLRLSCAASGLTSDTGGMGWFRQAPGKGLEWVSAITWSGRHTLYADSVKGRFTISRDKSKNTVYLQMNSLRAEDTAVYYCALDVVGIGIEVQTYDYWGQGTLVTVSSGGGGAS[sequence of human IgG1 Fc with changes omitted]", "notes": "Humanized B07 VHH (hu VH3; 37F, 73K, 78V) fused to human IgG1 Fc"}, "B15": {"name": "hB07v10 (Fc fusion)", "chain": "EVQLVESGGGLVQPGGSLRLSCAASGLTSDTGGMGWFRQAPGKELEWVSAITWSGRHTLYADSVKGRFTISRDNSKNTVYLQMNSLRAEDTAVYYCALDVVGIGIEVQTYDYWGQGTLVTVSSGGGGAS[sequence of human IgG1 Fc with changes omitted]", "notes": "Humanized B07 VHH (hu VH3; 37F, 44E, 78V) fused to human IgG1 Fc"}, "B16": {"name": "hB07v11 (Fc fusion)", "chain": "EVQLVESGGGLVQPGGSLRLSCAASGLTSDTGGMGWFRQAPGKGREWVSAITWSGRHTLYADSVKGRFTISRDNSKNTVYLQMNSLRAEDTAVYYCALDVVGIGIEVQTYDYWGQGTLVTVSSGGGGAS[sequence of human IgG1 Fc with changes omitted]", "notes": "Humanized B07 VHH (hu VH3; 37F, 45R, 78V) fused to human IgG1 Fc"}, "B17": {"name": "hB07v12 (Fc fusion)", "chain": "EVQLVESGGGLVQPGGSLRLSCAASGLTSDTGGMGWFRQAPGKEREWVSAITWSGRHTLYADSVKGRFTISRDNSKNTVYLQMNSLRAEDTAVYYCALDVVGIGIEVQTYDYWGQGTLVTVSSGGGGAS[sequence of human IgG1 Fc with changes omitted]", "notes": "Humanized B07 VHH (hu VH3; 37F, 44E, 45R, 78V) fused to human IgG1 Fc"}, "B18": {"name": "hB07v14 (Fc fusion)", "chain": "EVQLVESGGGLVQPGGSLRLSCAASGLTSDTGGMGWFRQAPGKGLEWVSAITWSGRHTLYADSVKGRFTISRDNSKNTVYLQMNSLRAEDTAVYYCALDVVGIGIEVQTYDYWGQGTLVTVSSGGGGAS[sequence of human IgG1 Fc with changes omitted]", "notes": "Humanized B07 VHH (hu VH3; 37F, 78V) fused to human IgG1 Fc"}}}
{"target": "T1, human transferrin receptor apical domain (human, UniProt P02786 198-378, limits assumed)", "T1 construct": "domain: apical domain; Soluble analyte in SPR; also called huTfR-AD; human TfR apical domain", "assay": "SPR (Biacore 8K), VHH-Fc captured, TfR apical domain as analyte", "method": "(§1) A set of experiments was performed to assess the binding affinities of VHH-Fc fusions for human and cyno TfR apical domain. In these experiments, binding affinities were determined by surface plasmon resonance using a Biacore™ 8K instrument in 1×HBS-EP+running buffer (GE Healthcare Cat. No. BR100669). Biacore™ Series S CM5 sensor chips were treated with a Human antibody capture kit (GE Healthcare, Cat. No. BR100839). VHH-Fc fusions were captured on each flow cell and serial 3-fold dilutions of human and cyno TfR apical domain (300, 100, 33, 11, 3.7, and 0 nM) were injected at a flow rate of 30 μL/min using the multi cycle kinetics method. Each sample was analyzed with a 270-second association and a 10-minute dissociation. Some VHH-Fc fusions were measured with serial 3-fold dilutions of human and cyno TfR apical domain (100, 33, 11, and 0 nM) with a 300-second association and 10-minute dissociation. After each cycle, the chip was regenerated using 3 M magnesium chloride for 30 seconds at 50 μL/minute. Binding response was corrected by subtracting the RU from a reference flow cell. A 1:1 Langmuir model of simultaneous fitting of kₒₙ and koff was used for kinetics analysis using Biacore™ 8K Evaluation Software.", "units": {"Kd": "nM"}}
{"binder": "B1", "Kd": 0.9}
{"binder": "B2", "Kd": 1.2}
{"binder": "B3", "Kd": 2.6}
{"binder": "B4", "Kd": 17}
{"binder": "B5", "Kd": 25}
{"binder": "B6", "Kd": 14}
{"binder": "B7", "Kd": 37}
{"target": "T2, cynomolgus transferrin receptor apical domain (cynomolgus, UniProt A0A2K5X958 198-378)", "T2 construct": "domain: apical domain; Soluble analyte in SPR; also called cyTfR-AD; cyno TfR apical domain", "T2 sequence (A0A2K5X958 entry or part of it)": "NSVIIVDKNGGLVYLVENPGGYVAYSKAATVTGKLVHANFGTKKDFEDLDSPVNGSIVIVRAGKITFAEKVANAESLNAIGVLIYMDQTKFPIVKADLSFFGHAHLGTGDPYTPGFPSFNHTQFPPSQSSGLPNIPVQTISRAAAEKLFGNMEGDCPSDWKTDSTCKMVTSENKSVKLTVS", "assay": "SPR (Biacore 8K), VHH-Fc captured, TfR apical domain as analyte", "method": "as §1", "units": {"Kd": "nM"}}
{"binder": "B1", "Kd": 2.2}
{"binder": "B2", "Kd": 2.5}
{"binder": "B3", "Kd": 5}
{"binder": "B4", "Kd": 32}
{"binder": "B5", "Kd": 47}
{"binder": "B6", "Kd": 25}
{"binder": "B7", "Kd": 77}
{"target": "T1, human transferrin receptor apical domain", "T1 sequence (P02786 198-378 limits assumed)": "as the sequence (A0A2K5X958 entry or part of it) above, with G11R, D50Y, S51T, K95N, D97E, Q128R, K167R, N173S, S175N counted along it", "assay": "SPR (Biacore 8K), VHH-Fc captured, TfR apical domain as analyte", "remark": "another data set of the same source", "method": "as §1", "units": {"Kd": "nM"}}
{"binder": "B1", "Kd": 1.04}
{"binder": "B8", "Kd": 2.72}
{"binder": "B9", "Kd": 5.79}
{"binder": "B10", "Kd": 320}
{"binder": "B11", "Kd": 985}
{"binder": "B12", "Kd": 64.1}
{"target": "T2, cynomolgus transferrin receptor apical …", "assay": "SPR (Biacore 8K), VHH-Fc captured, TfR apical domain as analyte", "remark": "another data set of the same source", "method": "as §1", "units": {"Kd": "nM"}}
{"binder": "B1", "Kd": 3.13}
{"binder": "B13", "Kd": 2.07}
{"binder": "B8", "Kd": 18.3}
{"binder": "B9", "Kd": 11.8}
{"binder": "B10", "Kd": 1340}
{"binder": "B11", "Kd": 2500}
{"binder": "B12", "Kd": 285}
{"target": "T1, human transferrin receptor apical domain", "assay": "SPR (Biacore 8K), VHH-Fc captured, TfR apical domain as analyte", "remark": "another data set of the same source", "method": "as §1", "units": {"Kd": "nM"}}
{"binder": "B1", "Kd": 0.8}
{"binder": "B2", "Kd": 0.4}
{"binder": "B14", "Kd": 1.3}
{"binder": "B15", "Kd": 1.3}
{"binder": "B16", "Kd": 2}
{"binder": "B17", "Kd": 2}
{"binder": "B18", "Kd": 1.3}
{"target": "T2, cynomolgus transferrin receptor apical …", "assay": "SPR (Biacore 8K), VHH-Fc captured, TfR apical domain as analyte", "remark": "another data set of the same source", "method": "as §1", "units": {"Kd": "nM"}}
{"binder": "B1", "Kd": 2}
{"binder": "B2", "Kd": 2.3}
{"binder": "B14", "Kd": 1.5}
{"binder": "B15", "Kd": 3.1}
{"binder": "B16", "Kd": 4.2}
{"binder": "B17", "Kd": 4.3}
{"binder": "B18", "Kd": 2.9}
{"target": "T1, human transferrin receptor apical domain", "assay": "SPR (Biacore 8K), VHH-Fc captured, TfR apical domain as analyte", "remark": "another data set of the same source", "method": "as §1\n(§2) The variable domains containing the mutation were sub-cloned onto the corresponding constant heavy domains of human IgG1. The heavy chain plasmids were transfected in Expi293 cells. Supernatants were collected after five days and monoclonal antibodies were purified by protein A chromatography. In order to assess affinities of the B07 mutants for human and cyno TfR apical domain, binding affinities were determined by surface plasmon resonance using a Biacore™ 8K instrument as described herein.", "units": {"Kd": "nM"}}
{"binder": "B1", "Kd": 0.8}
{"target": "T2, cynomolgus transferrin receptor apical …", "assay": "SPR (Biacore 8K), VHH-Fc captured, TfR apical domain as analyte", "remark": "another data set of the same source", "method": "as §1, §2", "units": {"Kd": "nM"}}
{"binder": "B1", "Kd": 2}
